# Source: the supplement of paper PMC3334620
# Over roughly 33,000 sequences, “E-score (-0.5 to 0.5)” has its median near -0.043; the highest 2% begin near 0.37. This is one part of the list.
# Molecular target: T1, Upc2 (UniProt Q12151)
# T1 sequence: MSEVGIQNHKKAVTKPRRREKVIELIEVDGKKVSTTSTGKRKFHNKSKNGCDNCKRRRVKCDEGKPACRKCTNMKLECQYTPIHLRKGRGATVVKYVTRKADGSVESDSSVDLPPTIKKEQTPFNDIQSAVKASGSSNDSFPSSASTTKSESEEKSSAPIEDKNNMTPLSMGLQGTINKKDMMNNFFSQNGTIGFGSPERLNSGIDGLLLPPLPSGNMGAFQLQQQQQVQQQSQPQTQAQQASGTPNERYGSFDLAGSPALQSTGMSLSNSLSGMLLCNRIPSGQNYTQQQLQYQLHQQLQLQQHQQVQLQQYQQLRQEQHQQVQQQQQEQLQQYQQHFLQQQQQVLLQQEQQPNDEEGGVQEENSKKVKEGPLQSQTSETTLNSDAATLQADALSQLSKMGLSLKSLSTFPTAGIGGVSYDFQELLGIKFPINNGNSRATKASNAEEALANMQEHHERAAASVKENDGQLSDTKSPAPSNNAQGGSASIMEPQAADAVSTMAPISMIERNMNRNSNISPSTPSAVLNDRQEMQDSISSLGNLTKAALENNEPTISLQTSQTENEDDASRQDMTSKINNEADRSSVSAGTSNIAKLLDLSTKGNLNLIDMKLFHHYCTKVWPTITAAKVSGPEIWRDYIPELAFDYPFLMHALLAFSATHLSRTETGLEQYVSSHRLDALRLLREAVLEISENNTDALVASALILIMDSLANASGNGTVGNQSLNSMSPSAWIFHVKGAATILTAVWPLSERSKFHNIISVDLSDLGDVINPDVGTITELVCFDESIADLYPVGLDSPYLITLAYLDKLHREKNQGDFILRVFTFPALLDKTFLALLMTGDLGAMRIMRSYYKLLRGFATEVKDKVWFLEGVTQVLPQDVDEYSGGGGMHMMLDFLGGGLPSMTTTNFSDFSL
# Assay: PBM E-score (8-mer binding enrichment) (E-score (-0.5 to 0.5)); higher = stronger / more preferred TF binding; most listed sequences are background and not binding sites
# Details: protein concentration: 200 nM; construct: GST-full length
# How it was run: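 Bound GST-tagged yeast transcription factors, applied at about 100-200 nM to double-stranded universal all-10-mer Agilent arrays, were detected with fluorescent anti-GST. Scans were normalised with masliner. A modified Wilcoxon-Mann-Whitney statistic, the E-score, was assigned to each ungapped eight-base word pooled with its reverse complement by the Universal PBM Analysis Suite.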
row,Sequence,PBM E-score
1,ACTACGCG,0.0466
2,ATAGGGGC,-0.0743
3,CCGTGAGC,-0.068
4,ACCGTTCC,0.324
5,AGAGACGA,0.0608
6,GCAGTGGC,-0.132
7,CACCAGTA,-0.144
8,AAACTGGA,0.0104
9,CATTACAA,-0.0174
10,TCAACCGA,0.18
11,CAGTATGG,0.00429
12,CGATCGTC,0.128
13,CCACAGTC,-0.226
14,CAGCGTAA,0.144
15,AAACATAT,0.141
16,CCCGTCCC,-0.151
17,CGAGCATA,0.175
18,GTAACTGA,-0.0563
19,CAAGGCTC,-0.273
20,AAGTGCCA,-0.139
21,GTTGTGGA,0.0496
22,CGAAAAAC,0.138
23,GGATGCAA,-0.0345
24,ATCGCTCG,0.165
25,ACGATAAC,0.321

row,Sequence,PBM E-score
1,ACTACACT,-0.125
2,ACTGGAAC,0.129
3,TTTATAAA,0.138
4,AGTCGATG,-0.00202
5,AAGCCAGT,-0.0647
6,ATGAGGTG,-0.132
7,TGGACACA,-0.143
8,GCAGGGTA,-0.202
9,AATCCCTG,-0.186
10,AGCGTTGA,-0.00696
11,GACGGTGC,0.0569
12,GTGGCCAC,-0.0982
13,CGATGATC,0.0749
14,ATGTCACG,-0.0865
15,ACTCGCGG,0.083
16,AGGGAGGC,-0.0336
17,AAGACGAG,-0.00338
18,GAGGCAAA,-0.198
19,ATTATAAA,0.142
20,CCTAGCGA,-0.299
21,CGGTTAAA,0.214
22,ACTGCATC,-0.05
23,GAGGTTGA,-0.0567
24,TTGAGCAA,0.00299
25,GCAGAGAC,-0.318

row,Sequence,PBM E-score
1,GAGTACGC,-0.0301
2,CAGACCAC,-0.182
3,TACCGAGA,0.137
4,AAGCCCCG,-0.124
5,AATTTGAC,0.0401
6,GACTCAGA,-0.181
7,CTGGACAA,-0.106
8,CAACCCAG,-0.216
9,ACCACCGA,-0.0106
10,CGACAAAA,0.188
11,CCTCCTGC,-0.451
12,AACCTTGG,-0.15
13,CGCATTAA,0.0259
14,CCCTCACA,-0.164
15,ACCATCTC,0.00371
16,AGTGCGAT,0.0239
17,TCTGCCCA,-0.195
18,GGTTTTGA,-0.128
19,GGTTCAGA,-0.186
20,AGAGGACC,-0.0921
21,CTTTTGGA,-0.147
22,CCGATACC,-0.00432
23,TCCAGAGA,-0.283
24,TCAATAAA,0.0497
25,CTTTTCGA,-0.00354

row,Sequence,PBM E-score
1,GTATCGAA,0.142
2,CGAACAAA,0.183
3,TATTCGCA,0.086
4,CCATATGA,-0.153
5,ATAGAGGC,-0.0461
6,ATTCAGGA,-0.0353
7,CTTCACGA,-0.0872
8,AGTATCGC,0.0702
9,AAAGAACT,0.123
10,GCATGGTA,-0.0135
11,GCACGCCA,-0.193
12,ATTGTTCG,0.231
13,CAACCGAG,0.219
14,GCTCGAAA,0.0199
15,GCGGCGCC,0.0908
16,TCTCTAAA,-0.101
17,GACCTCAA,-0.161
18,CAGCGAAG,-0.248
19,CCCACCGC,0.048
20,ATCTCCTG,-0.0597
21,ACTAAGTC,-0.173
22,TATAAAGA,-0.0656
23,CCCGGCCC,-0.193
24,ACTATCGC,0.0323
25,CTTCTTAC,0.0375

row,Sequence,PBM E-score
1,AAAGCTGT,-0.0179
2,GCCAATAA,-0.0856
3,CAGCCCAC,-0.0743
4,ACTCTCGA,0.0144
5,AGCTAGGG,-0.268
6,ACAGTCCG,-0.0351
7,ACCCTATG,-0.102
8,CGTATTAA,0.294
9,GCGGGGCC,-0.0323
10,AACAAAAT,-0.0992
11,CAGGCTCC,-0.253
12,AATGAACG,0.346
13,AATACGAG,0.457
14,AACCTACC,-0.1
15,AACCATCC,-0.0924
16,CTGGGGGA,-0.227
17,CAATGGGG,-0.256
18,CATAGTTC,-0.0682
19,CGAACACC,0.0867
20,AGGAGGAC,-0.134
21,CCGCTCTA,-0.0598
22,ATTGGGCC,-0.0426
23,CCCAGCGG,-0.0188
24,CGGCATTA,0.077
25,GCATGGCC,-0.171

row,Sequence,PBM E-score
1,GCCTTCCC,-0.232
2,TCGTACGA,0.471
3,ATATAATC,-0.158
4,AACCACGG,-0.164
5,AGGTCACT,-0.113
6,ACGGTAGG,0.0252
7,AGCGAACC,0.176
8,CTGGGTAC,0.14
9,AGTGGAAC,-0.0614
10,CAGGCTTA,-0.316
11,TCCGTAGA,-0.0263
12,TAAACCTA,0.104
13,CTCATCAA,-0.111
14,CGATAGCA,0.122
15,ATGATCTA,-0.00479
16,AAACCGTA,0.259
17,AATCATCC,-0.0451
18,ATTCGCTA,0.141
19,AGGGCGCC,-0.168
20,CATACGGC,0.383
21,GATATAGA,-0.0283
22,ACCAGTAC,0.154
23,ACTAGGCT,-0.00062
24,CACGCACC,-0.19
25,AGGCTAGA,-0.056

row,Sequence,PBM E-score
1,CCTTCTAG,-0.185
2,CTGTCTGC,-0.204
3,CTCAACCA,-0.267
4,CGACCCCA,-0.0943
5,ACGGTTGG,0.0991
6,AGTTAAGC,0.00193
7,ACTAACAC,0.087
8,AAGTCTCA,-0.265
9,CTAATGAA,0.0204
10,AAAGATAG,0.0184
11,AACGCATC,0.14
12,CCTAATCG,0.237
13,CTTTTGAA,-0.0826
14,CTTGGAGA,-0.101
15,CGCGAAAA,0.197
16,CGGTGCTC,0.0465
17,ATAATACG,0.309
18,AACGGAAA,0.216
19,CAGGCCCG,-0.233
20,CACTCACG,0.00181
21,ACATACTG,0.0774
22,CTGATACC,-0.106
23,AGAAATCG,-0.0457
24,GACTCATA,0.00139
25,CGGCGCTC,0.16

row,Sequence,PBM E-score
1,TCGCGTAA,0.303
2,AGTCTCGA,0.0343
3,CTTCTCCC,-0.0944
4,GTCCAGCA,-0.221
5,GGCACAAA,-0.0691
6,GACAAAGA,0.0147
7,CAGTGTAA,-0.0228
8,CACGAGCG,0.17
9,GGACCCAC,-0.11
10,AACCATTA,0.00366
11,AGGAGCTC,0.108
12,CCGGTCTA,-0.122
13,GAGGATGA,-0.0375
14,AGACCATC,-0.199
15,CAGGTCTA,-0.172
16,CACTCCTC,0.0441
17,CTACGACC,0.364
18,AGCTCCGG,-0.202
19,ATATTATA,0.205
20,ATACACCG,0.109
21,ACGGAAGA,0.16
22,CTGGTCAA,-0.17
23,CTAGACCA,-0.217
24,CGGCCTGA,-0.236
25,AAGCGGCC,-0.116

row,Sequence,PBM E-score
1,ATTTAGAA,-0.14
2,CCGTACCG,0.389
3,CCCTATGC,-0.22
4,AGAAAGCG,0.0648
5,ACTTCGGA,0.0617
6,CCTAAGGA,-0.0656
7,AGGCGACT,-0.217
8,CAACACCG,-0.22
9,CTATAGTC,0.0621
10,ACTTACAA,0.14
11,AAGAGTAA,0.009
12,ATTCCTCG,0.2
13,AACCGTAT,0.375
14,ACTCCCCA,-0.227
15,AGTGTCTA,0.0534
16,CCGCCCCA,-0.0721
17,CGTAATCA,0.197
18,CTTACTCC,0.0123
19,ATGGGTAA,-0.116
